Measurements from the supplement of paper PMC7726561.
In all, about 1,400 sequences were measured (“thermal melting temperature (Tm) of peptide-HLA complex”: median about 60, lowest 2% from about 45 on). The list shows a part of the results.

B1: unnamed (peptide)
chain: LPSLRILYM
B2: unnamed (peptide)
chain: EPRPGAGSL
B3: unnamed (peptide)
chain: TPLLMQALPM
B4: unnamed (peptide)
chain: LPRPVPQNL
B5: unnamed (peptide)
chain: QPLAPSGLTL
B6: unnamed (peptide)
chain: KPMPSLPQL
B7: unnamed (peptide)
chain: LPAPKWTEL
B8: unnamed (peptide)
chain: APHLVGPHL
B9: unnamed (peptide)
chain: APKPEPVPV
B10: unnamed (peptide)
chain: IPREVSETL
B11: unnamed (peptide)
chain: APRWGNPRAL
B12: unnamed (peptide)
chain: RVREITENL
B13: unnamed (peptide)
chain: TPGPAGSRL
B14: unnamed (peptide)
chain: YPNERFELL
B15: unnamed (peptide)
chain: KPHIGLTEL
B16: unnamed (peptide)
chain: KPSESNVTIL
B17: unnamed (peptide)
chain: LPRGFGSLPAL
B18: unnamed (peptide)
chain: IPSIRNGIL
B19: unnamed (peptide)
chain: KPLYTAEPVTL
B20: unnamed (peptide)
chain: IPLKGSTL
B21: unnamed (peptide)
chain: RPAAIPIEI
B22: unnamed (peptide)
chain: RPSLNIATVL
B23: unnamed (peptide)
chain: NPRDPPSWSV
B24: unnamed (peptide)
chain: MPSSRLWSL
B25: unnamed (peptide)
chain: SPHPGLLL
B26: unnamed (peptide)
chain: TPRSTVGVAV
B27: unnamed (peptide)
chain: MPYSNGRPAL
B28: unnamed (peptide)
chain: GPRPAAIAV
B29: unnamed (peptide)
chain: FPHVQTDVL
B30: unnamed (peptide)
chain: SPRENILVSL
B31: unnamed (peptide)
chain: LPEENYQVL
B32: unnamed (peptide)
chain: RPTLPVKSL
B33: unnamed (peptide)
chain: APLLRVAL
B34: unnamed (peptide)
chain: SPQGRVMTI
B35: unnamed (peptide)
chain: SPRPALPALLV
B36: unnamed (peptide)
chain: PAERKQAL
B37: unnamed (peptide)
chain: SPAEWGQRL
B38: unnamed (peptide)
chain: HPYGLGPPSL
B39: unnamed (peptide)
chain: SPSPERSLLL
B40: unnamed (peptide)
chain: SPANPAHIL
B41: unnamed (peptide)
chain: HPRDPNLLL
B42: unnamed (peptide)
chain: IPRPWSSGL
B43: unnamed (peptide)
chain: GPHIASVTL
B44: unnamed (peptide)
chain: SPGQRAVLL
B45: unnamed (peptide)
chain: RPINITSL
B46: unnamed (peptide)
chain: LPRAGLEL
B47: unnamed (peptide)
chain: SPRPGAPPAAI
B48: unnamed (peptide)
chain: IPHHAPVLL
B49: unnamed (peptide)
chain: LPRTPSYSI
B50: unnamed (peptide)
chain: QPVAGRPSL
B51: unnamed (peptide)
chain: YPQDLPRPL
B52: unnamed (peptide)
chain: RPSTSTAVF
B53: unnamed (peptide)
chain: QPASFAIRL
B54: unnamed (peptide)
chain: APAPRPSL
B55: unnamed (peptide)
chain: APDVGRMGI
B56: unnamed (peptide)
chain: KPRPSVEPA

Target: HLA-B*07:02
Experiment: thermal melting temperature (Tm) of peptide-HLA complex; higher = more thermostable pHLA complex
Conditions: C1R-B*07:02
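Note: cell lysates heated 10 min at 37–73 °C, remaining pHLA pulled down with pan-class I antibody, peptides quantified by DIA-MS versus 37 °C, Tm where half the complex is lost.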

Sequence	thermal melting temperature [°C]
B1	61.4
B2	53.3
B3	50.7
B4	61.4
B5	62.7
B6	44.9
B7	62.9
B8	60.3
B9	54.2
B10	61.9
B11	59.2
B12	57
B13	53.1
B14	63.1
B15	60.7
B16	58.3
B17	61
B18	62.8
B19	58.5

Sequence	thermal melting temperature [°C]
B20	46
B21	62.5
B22	60.8
B23	55.5
B24	60.9
B25	61
B26	56
B27	58.2
B28	58.8
B29	62.6
B30	62.3
B31	61.9
B32	60
B33	63
B34	56.9
B35	59.4
B36	61.2
B37	55.6
B38	55.2

Sequence	thermal melting temperature [°C]
B39	60.8
B40	66.3
B41	61
B42	61.2
B43	59.3
B44	59.2
B45	60.7
B46	62.3
B47	58.1
B48	45.8
B49	62.1
B50	55.8
B51	60.7
B52	58.4
B53	54
B54	58.1
B55	58.2
B56	62.6
